# Results published in the supplement of paper PMC8674133.
# Recombinant human monoclonal antibodies (heavy:light variable regions). ELISA EC50 on the named antigen, from 10 µg/ml down; IC50 / IC90 against spike pseudovirus on 293T-ACE2 cells, 48 h; lower = stronger. Calls: IC50 above 1,000 ng/ml = non-neutralizing; EC50 above 2,000 ng/ml = non-binder. The source prints 1000 for neutralization that was not reached; it is given as >1000 ng/ml. A few antibodies were first reported in earlier work of the same group.
# B1: C2480 (protein)
# chain 1: QVQLVQSGGEVQRPGASVKVSCKASGYTFTSYGISWVRQAPGQGLEWMGWISTFEGITNYAQKLQGRVTMTTDTSTSTAYMELGSLRSDDTAVYFCARVTGTYHSDRSGLPGMIYYFDYWGQGTLVTVSS
# chain 2: EIVMTQSPATLSVSPGERATLSCRASQSISNNLAWYQQKPGQTPRLLIYGASTRATGIPARFSGSGSGTDFTLTITSLQSEDLAVYYCQQYDDWPPTWTFGQGTKVEIK
# B2: C1235 (protein)
# chain 1: QVQLVQSGAEVKKPGSSVKVSCKASGGTFRNYAISWVRQAPGQGLEWMGRIIPITDIANYAQKFEGRVTITADKSTSTAYMELSSLKSEDTAVYYCARQSGVYYDAPAPWGQGTLVTVSS
# chain 2: DIQMTQSPSSLSASVGDRVTITCQASQDISNYLNWYQQKPGKAPKLLIYDASNLETGVPSRFSGSGSGTDFTFTISSLQPEDFATYYCQQYDNLPFTFGPGTKVDIK
# B3: C1236 (protein)
# chain 1: QVQLVESGGGVVQPGRSLRLSCAASGFTFSSYSMHWVRQAPGKGLEWVAVILYDGSMKLYADSVKGRYTISRDNSKNTLYLQMNSLRPEDTAVYYCARDEGPTVTLFDHWGQGTLVTVSS
# chain 2: DIQMTQSPSSLSASVGDRVTITCRASQSINSYLNWYQQKPGKAPKLLIYVTSSLQSGVPLRFSGSGSGTDFTLTISSLQPEDFATYYCQQSYSTPPWTFGQGTKVEIK
# B4: C1445 (protein)
# chain 1: EVQLVESGGDLVQPGGSLRLSCAASGITVSRNYMSWVRQAPGKGLKWVSTIYSGGSTFYADSVKGRFTISRDNSKNTLYLQMNSLRAEDTAVYYCARGAGYYYGMDVWGQGTTVTVSS
# chain 2: DIQLTQSPSFLSASIGDRVTITCRASQGISNYLAWYQQKPGKAPKLLIYAASTLQSGVPARFSGTGSGTEFTLTISSLQPEDFATYYCQQLDDNSNFGGGTKVEIK
# B5: C1446 (protein)
# chain 1: EVQLLESGGGLVQPGGSLRLSCAASGFTFSTYAMYWVRQAPGKGLEWVSGISGGGGSTYYADSVKGRFTISRDNSKNTLHLQMKSLRADDTAVYYCAKTLGRSGFLWFGAVFDYWGQGILVTVSS
# chain 2: QSALTQPASVSGSPGQSITISCTGTSSDVGGYDYVSWYQHHPGRAPKLMIYDVSNRPSGVSNRFSGSKSGNTASLTISGLQAEDEADYYCSSYTTSSAIFGGGTKLTVL
# B6: C1447 (protein)
# chain 1: EVQLVESGGGLVQPGGSLRLSCAASGFTFSGYNMNWVRQAPGKGLEWVSYISRRSTAMYYAGSVMGRFTISRNDATNSLYLQMHSLSVEDTAVYYCAREYEGSYGAFDYWGQGTLVTVSS
# chain 2: DIQMTQSPSSLSASIGDRVTITCRASQSISTYLNWYQQKPGKAPKLLIYAASDLQSGVPSRFSGSGSGTDFTLTISSLQPEDFATYYCQQSYTLFTFGPGTKVDIK
# B7: C1448 (protein)
# chain 1: QVQLVQSGAEVKKPGASVKVSCKASGYTFTSYGITWVRQAPGQGLEWVGWISTFNGDTNYAQRLQGRVTMTTDTSTSTAYMELRSLRSDDTAVYYCARGPSGSYLDLDYWGQGTLVTVSS
# chain 2: EIVLTQSPATLSLSPGERATLSCRASQSVRSYVAWYQQKPGQAPRLLIYDASNRATGIPARFSGSGSGTDFTLTISSLEPEDFAVYYCQQRYNWPPELTFGGGTKVEIK
# B8: C1449 (protein)
# chain 1: EVQLVESGGGLVQPGGSLRLSCSASGFTFSTYSMNWVRQAPGKGLEYVSGISSNGDIADYADSVKGRFTISRDNSKNTLYLQMSSLRTEDTAVYYCVKDTLDHFTVFDYWGQGTLVTVSS
# chain 2: DIQMTQSPSSLSASVGDRVTITCRASQTISRYLNWYQQKPGKAPKLLIYAASSLQSGVPSRFSGSGSGTDFSLTISSLQREDFATYYCQQSYTTPFTFGQGTKLEIK
# B9: C1450 (protein)
# chain 1: EVQLLESGGGLVQPGGSLRLSCAASGFTLSSYVMTWVRQAPGKGLEWVSVISGSSGSTYYADSVKGRFTISRDNSKNTLFLQMNSLSAEDTAVYYCAKTRTGWYVGFDYWGQGTLVTVSS
# chain 2: NFMLTQPHSVSESPGKTVTISCTRSSGSIASHYIQWYQQRPGSSPTTVIYEDNQRPSGVPDRFSGSIDSSSNSASLTISGLKTEDEADYYCQSYDSSKHWVFGGGTKLTVL
# B10: C1451 (protein)
# chain 1: QVQLVQSGAEMKKPGASVKVSCKASGYTFINYGITWVRQAPGQGLEWMGWISAFNGNTNYAQNLQGRVTMSTDTSTSTAYMVLRSLRSDDTAVYYCARVGVGYCTSTSCYNQPSFDIWGQGTMVTVSS
# chain 2: QSVLTQPPSTSGTPGQRVTVSCSGSSSNIGNNAVNWYQQLPGTAPKLLIYSNDQRPSGVPDRFSGSKSGTSAFLAISGLQSEDEADYYCAAWDDSLNGHVVFGGGTKLTVL
# B11: C1205 (protein)
# chain 1: QVQLQESGPGLVKPSGTLSLTCAVSGGSISSRNWWSWVRQPPGKGLEWIGEIYHSGSTSYNPSLKSRVTISVDKSKNQFSLYLNSVTAADTAVYYCARSSGLLDYWGQGTLVTVSS
# chain 2: DIQMTQSPSSLSASVGDRVTITCRASQGISNSLAWYQQKPGKAPKLLLYAASTLESGVPSRFSGSGSGTDYTLTISSLQPEDFATYYCQQYYSTRTFGQGTKVEIK
# B12: C2481 (protein)
# chain 1: EVQLVESGGGLVQPGGSLRLSCAASEILVSRNYMNWVRQAPGKGLEWVSIIYSGGSTFYADSVKGRFTISRDSSKNTLYLQMNSLRTEDTAVYYCARSYGDFYMDYWGQGTLVTVSS
# chain 2: DIQMTQSPSSLSASVGDRVTITCRATQAISNSLAWYQQKPGKAPKLLLYAASRLESGVPSRFSGSGSGTDYTLTISSLQPEDFATYFCQQYYTTPSITFGQGTRLEIK
# B13: C1265 (protein)
# chain 1: QLQLQESGPGLVKPSETLSLTCTVSGGSISSTNNYWGWIRQSPGTGLEWIGSIYYSGSTYYNPSLKSRVTISVDTSKNQFSLRLSSVTAADTAVYYCARLLGAVFGWGQGTLVTVSS
# chain 2: DIQMTQSPSSLSASVGDRVTITCRASQGISNSLAWYQQIPGKAPKLLLYAASTLESGVPSRFSGTASGTVYTLIISSLQPEDFATYYCQQYYSTPPLTFGGGTKVEIK
# B14: C1266 (protein)
# chain 1: EVQLVESGGGLIQPGGSLRLSCAASGITVSSNYMNWVRQAPGKGLQWVSVIYSGGSTFYADSVKGRFTISRDSSKNTLYLQMNSLRPEDTAVYYCARDLQVYGMDVWGQGTTVTVSS
# chain 2: DIQLTQSPSFLSASVGDRVTITCRASQGISSYLAWYQQKPGKAPKLLIYAASTLQSGVPSRFSGSGSGTEFTLTISSLQPEDFATYYCQQPNTYSISFGQGTRLEIK
# B15: C1269 (protein)
# chain 1: QVQLVQSGAEVKKPGASVKVSCKASGYTFTSQYMHWVRQAPGQGLEWMGIINPSAGSTSYAQKFQGRLTMTSDTSTSTVYMDLSSLRSEDTAVYYCARDIVFVPAAMGLDYWGQGTLVTVSS
# chain 2: IQMTQSPSSLSASVGDRVTITCRASQGIRNDLGWYQQKPGKAPKLLIYAASSLQSGVPSRFSGSGSGTDFTLTISSLQPEDFATYYCLQDYNYPWTFGQGTKVEIK
# B16: C1272 (protein)
# chain 1: QVQLQESGPGLVKPSETLSLTCTVSGGSIRSYYWSWIRQPPGKGLEWVGSIYYSGSTNYNPSLKSRVSVSVDTSKNQFSLKLTSVTAADTAVYYCARGPPGFDSWGQGTLVTVSS
# chain 2: DIQMTQSPSSLSASVGDRVTITCRASQGISNSLAWYQQKPGKAPKLLLYAASTLESGVPSRFSGSGSGTDFTLTISSLQPEDFATYYCQQYYSTTWTFGQGTKVEIK
# Molecular target: SARS-CoV-2 Wuhan-Hu-1 spike pseudovirus
# Test: pseudovirus neutralization IC50; higher = weaker neutralization
# Protocol: (§1)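 Single-round luciferase reporter pseudovirus mixed with antibody dilutions and put on 293T-ACE2 cells for 48 h; signal relative to no-antibody wells, four-parameter fit.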
row,Binder,pseudovirus neutralization IC50
1,B1,0.268 µg/mL
2,B2,> 1 µg/mL
3,B3,0.85 µg/mL
4,B4,0.0105 µg/mL
5,B5,> 1 µg/mL
6,B6,0.00296 µg/mL
7,B7,> 1 µg/mL
8,B8,> 1 µg/mL
9,B9,0.112 µg/mL
10,B10,0.8 µg/mL
11,B11,0.0107 µg/mL
12,B12,0.0066 µg/mL
13,B13,0.00607 µg/mL
14,B14,0.0116 µg/mL
15,B15,> 1 µg/mL
16,B16,0.00168 µg/mL

# Molecular target: SARS-CoV-2 Wuhan-Hu-1 spike pseudovirus
# Test: pseudovirus neutralization IC90; higher = weaker neutralization
# Protocol: as §1
row,Binder,pseudovirus neutralization IC90
1,B1,> 1 µg/mL
2,B2,> 1 µg/mL
3,B3,> 1 µg/mL
4,B4,0.0467 µg/mL
5,B5,> 1 µg/mL
6,B6,0.0368 µg/mL
7,B7,> 1 µg/mL
8,B8,> 1 µg/mL
9,B9,> 1 µg/mL
10,B10,> 1 µg/mL
11,B11,0.0507 µg/mL
12,B12,0.0332 µg/mL
13,B13,0.0416 µg/mL
14,B14,0.0532 µg/mL
15,B15,> 1 µg/mL
16,B16,0.0377 µg/mL

# Molecular target: SARS-CoV-2 Wuhan-Hu-1 spike receptor-binding domain
# Test: ELISA binding EC50; higher = weaker binding; ELISA of recombinant human antibody on coated antigen, from 10 µg/ml in fourfold dilutions; four-parameter fit.
row,Binder,ELISA binding EC50
1,B1,0.00309 µg/mL
2,B2,> 10 µg/mL
3,B3,0.00131 µg/mL
4,B4,0.00231 µg/mL
5,B5,0.00281 µg/mL
6,B6,0.00131 µg/mL
7,B7,0.00157 µg/mL
8,B8,0.00189 µg/mL
9,B9,0.00194 µg/mL
10,B10,0.0265 µg/mL
11,B11,0.00249 µg/mL
12,B12,0.00131 µg/mL
13,B13,0.00238 µg/mL
14,B14,0.00208 µg/mL
15,B15,0.00183 µg/mL
16,B16,0.00194 µg/mL
